Among all 48,000 compounds or so, about 120 (0.25%) were called active. Inconclusive results (about 4%) are left out. Calls come from the whole dose curve; as a rule, active = well fitted activation curve with a large enough effect; inconclusive = small, poorly fitted or top-dose-only effect, or another doubt; inactive = no such curve, though single readings can be large or run the other way. This is one part of the list.
Assay: Primary qHTS for Identification of Small Molecule Activators of Huntingtin-Antisense Promoter Activity; note: nearly all actives have a fitted effect of over 55% in size
Conditions: HEK293 HTT-AS promoter firefly luciferase reporter, 24 h; series mostly up to 57.5 µM; activity change, positive = activation: at the top concentration
Summary of the method: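 HEK293 luciferase promoter-reporter cells (2,500/well) plated 24 h, then compounds added at up to 57.5 uM final for 24 h at 37 °C. Firefly luminescence by Dual-Glo, normalized to vehicle (0%) and zero RLU (-100%).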

Activity change, positive = activation, inactive:
Cc1cccc(C)c1NC(=O)NCCCN1CCN(c2ccccc2)CC1 -2.71%
CC(C)(C)c1ccc(C(=O)NNc2ncnc3c2cnn3-c2ccc(Cl)cc2)cc1 -32.6%
CNC(=O)C1CCC(Cn2c(=O)c3sccc3n(CC(=O)NCc3ccc(C)cc3)c2=O)CC1 (centres undefined) -15.6%
Cc1cc(C)c2c(n1)SCC(=O)N2CC(=O)Nc1ccccc1C -30.9%
Cn1c(=O)oc2cc(S(=O)(=O)N3CCCC(C(=O)NCc4ccccc4Cl)C3)ccc21 (centres undefined) -27.8%
COc1ccc(NC(=O)Cn2c(=O)oc3cc(Cl)ccc32)c(OC)c1 -17.1%
Cc1ccc(C)c(NC(=O)CCCn2c(C)c3cnn(-c4ccccc4)c(=O)c3c2C)c1 -13.8%
CCc1ccc(NC(=O)CSc2nc(C)c(C(=O)Nc3ccc(Cl)cc3)c(-c3ccc(OC)cc3)c2C#N)cc1 12.1%
Cc1ccccc1C(=O)Nc1sc2c(c1C(=O)O)CCC(C(C)(C)C)C2 (centres undefined) -37.2%
O=C(CSc1nc2c([nH]c3ccccc32)c(=O)n1-c1ccc(F)cc1)NCC1CCCO1 (centres undefined) -25.8%
O=C(CSc1nc2c([nH]c3ccccc32)c(=O)n1-c1ccccc1)N1CCCc2ccccc21 -8.11%
O=C(Nc1ccc(Br)cc1)c1cc2nc(-c3ccccc3)cc(-c3ccccc3)n2n1 0.406%
CCOc1ccc(-c2nnc(SCC(=O)NCc3ccc(Cl)cc3)o2)cc1 -49%
Cc1ccc(NC(=O)c2cc(S(=O)(=O)NC3CCCCCC3)ccc2F)cc1F -47.6%
COc1ccc2[nH]cc(CCN=C(NC(=O)c3cccc(Cl)c3)Nc3nc(C)cc(C)n3)c2c1 -15.3%
CCc1ccccc1NC(=O)CC(C)S(=O)(=O)c1ccc2c(c1)NC(=O)CO2 (centres undefined) -8.22%
CCc1ccc2occ(CC(=O)Nc3nnc(C)s3)c2c1 -8.59%
CCNC(=O)C1CCN(c2nc3ccccc3nc2C(F)(F)F)CC1 10.2%
O=C(CSc1nc2c([nH]c3ccccc32)c(=O)n1-c1ccccc1)NCc1ccc(F)cc1 -32.5%
O=C(CN1C(=O)C2(SCC(=O)N2c2ccccc2)c2ccccc21)Nc1ccccc1C(F)(F)F (centres undefined) -16.3%
CC(=O)c1nn(-c2ccc(OC(F)(F)F)cc2)nc1Nc1ccc(Cl)cc1 -1.29%
CCOc1ccc(NC(=O)Cn2cc(S(=O)(=O)c3ccc(C)cc3)c(=O)c3cc(F)ccc32)cc1 -26.5%
COc1ccc(C(=O)c2cnc3ccc(C)cc3c2S(=O)(=O)c2ccccc2)cc1 -53.2%
COc1ccc(S(=O)(=O)N2CCC(C(=O)NC(C)c3ccccc3)CC2)cc1 (centres undefined) 0.852%
Cc1ccc(CN2C(=O)C(O)(CC(=O)c3ccc(C)cc3)c3ccccc32)cc1 (centres undefined) -19.1%
CCc1nn(CCCC(=O)NCc2ccc(OC)c(OC)c2)c(=O)c2cc3occc3n12 -18.5%
COC(=O)C1CCN(c2csc3ccc(C)cc3c2=O)CC1 24.4%
CCN(CCCNC(=O)c1ccc(Sc2ccc(Cl)cc2)c(NC(C)=O)c1)c1cccc(C)c1 -31.5%
c1ccc(N2CCN(c3ncnc4c3nc3n4CCCCC3)CC2)cc1 -53.5%
Cc1ccc(C)c(NC(=O)CN(Cc2ccccc2)S(=O)(=O)c2ccc3nc(C)sc3c2)c1 -25.9%
CN1c2ccccc2-c2nc(SCC(=O)Nc3ccccc3)ncc2S1(=O)=O -22.8%
CCN(CC)c1ccc(-c2nc(-c3ccccn3)no2)cc1[N+](=O)[O-] -43.7%
NCc1ccccc1Sc1ccccc1CO -1.84%
COc1cc(C2Oc3nc(SC)nnc3-c3ccccc3N2C(C)=O)cc(Cl)c1OC (centres undefined) 9.37% [at 11.5 µM, percent change from vehicle, -100% = no light]
Cc1cc(Br)ccc1NC(=O)c1sc2ncn(Cc3ccccc3Cl)c(=O)c2c1C -3.77%
O=C(CSc1oc(-c2ccco2)nc1S(=O)(=O)c1ccc(Br)cc1)c1ccc(Cl)cc1 -19.4%
C[C@]1(c2nc3c(C(N)=O)cccc3[nH]2)CCCN1 -9.03%
CCN1C(=O)c2ccccc2S(=O)(=O)c2ccc(C(=O)NCc3ccc(F)cc3)cc21 -27.7%
Cc1ccc(CNC(=O)CN2C(=O)COc3ccc(S(=O)(=O)N4CCC(C)CC4)cc32)cc1 -26.2%
Nc1c(NC/C=C\COc2cc(CN3CCCCC3)ccn2)c(=O)c1=O -8.57% [at 25.1 µM, percent change from vehicle, -100% = no light]
CC(=O)N[C@@H](CS)C(=O)O 0.523%
COc1ccc(NC(=O)c2ccc3[nH]c(C)cc(=O)c3c2)cc1 2.4%
Cc1ccc(NC(=O)Cc2coc3c(C)c(C)ccc23)c(C)c1 -8.47%
Cc1ccc(-n2cc(C(=O)OCc3ccc(Cl)cc3)c3ccccc3c2=O)cc1 -17.9%
Cc1ccc(N2CC(NC(=O)C3CCCC3)CC2=O)cc1 (centres undefined) -16.1%
CC(C)CCNC(=O)c1ccc(NC(=O)N2CCCCc3ccccc32)cc1 -3.29%
COc1cccc(N2CCN(C(=O)Cn3ncc4c3-c3ccccc3OC4)CC2)c1 -21.5%
CCOc1ccc(Nc2c(S(=O)(=O)c3ccccc3)cnc3ccc(CC)cc23)cc1 -30.8%
Cc1ccc(C(=O)c2cn(CC(=O)Nc3ccc4c(c3)OCCO4)c3nc(C)ccc3c2=O)cc1 -18.9%
O=C(CSc1nc2ccccc2n1Cc1ccccc1)NCc1ccccc1 -15.3%
CC(C)CC(NC(=O)C1CCC(C)CC1)C(=O)OCC(=O)c1ccc(Cl)cc1 (centres undefined) -22.6%
CSc1oc(-c2ccc(F)cc2)nc1S(=O)(=O)c1ccc(Br)cc1 -14.4%
CN1Cc2cc(C(=O)N3CCC(C4CCNCC4)CC3)ccc2N[C@@H](CC(=O)O)C1=O -3.12%
Cc1cccc(NC(=O)CCS(=O)(=O)c2cc(Br)cc3c2N(C(=O)C2CC2)CC3)c1C -7.45%
CC1=C(C(=O)Nc2cccnc2)C(c2ccc(F)cc2)n2nc(SCc3ccccc3)nc2N1 (centres undefined) -4.28%
CCCNC(=O)Cn1nc(C)c2c(C)n(-c3ccccc3)nc2c1=O -15.1%
CC1CCN(S(=O)(=O)c2cccc(C(=O)N(C)C3(C)CCS(=O)(=O)C3)c2)CC1 (centres undefined) -22.4%
COc1cc(OC)c(NC(=O)CSc2nc3ccncc3[nH]2)cc1Cl -33.4%
CC(NC(=O)C1CCN(C(=O)N2CCOc3ccccc32)CC1)c1ccccc1 (centres undefined) -5.28%
CCCCOC(=O)CCCCCCCCC(=O)OCCCC 1.76%
CCCCNC(=O)CSc1nc2ccccc2nc1Cc1ccccc1 -8.07%
Cc1ccc(NC(=O)N2CCC(CN3CCCCC3)CC2)c(Cl)c1 -8.32%
CCn1cc(/C=C(\NC(=O)c2ccc(OC)c(OC)c2)C(=O)NCCCn2ccnc2)c2ccccc21 -6.62%
CCOC(=O)c1cc(-c2ccc(OC)cc2)n(CCC(=O)NCCc2ccc(OCC)c(OCC)c2)c1C -24.1%
Cc1nc2sccn2c(=O)c1S(=O)(=O)Nc1cccc(Cl)c1C -23%
CC(=O)c1ccc(N2CCN(S(=O)(=O)c3ccc(-c4cnc(C5CC5)o4)cc3)CC2)cc1 0.454%
Cc1ccc(OCC(=O)Nc2ccc(C(=O)OCc3cc(=O)n4ccsc4n3)cc2)cc1C -22.9%
CC1CCN(c2nc3c(S(=O)(=O)c4cccc(Cl)c4)nnn3c3ccsc23)CC1 -30.3%
Cc1ccc(N2CCN(C(=O)CCS(=O)(=O)c3cc4c(cc3Cl)NC(=O)CO4)CC2)c(C)c1 -29.7%
COc1cc([N+](=O)[O-])ccc1NC(=O)N1CCC2(CC1)Nc1cc(F)ccc1-n1cccc12 -27.8%
Cc1ccccc1Nc1nnc(-c2ccc(C)c(S(=O)(=O)NCC3CCCO3)c2)c2ccccc12 (centres undefined) -30.6%
CCOC(=O)c1c(-c2ccc(OC)cc2)oc2ccc(OCc3ccc(F)cc3F)cc12 10.1% [at 11.5 µM, percent change from vehicle, -100% = no light]
CC(C)(C)OC(=O)N1CCC(c2c(C(=O)N3CCN(c4ncccn4)CC3)cnn2-c2ccc(F)cc2)CC1 -1.4%
O=C(O)Cc1cccc(OCCCN(Cc2cccc(C(F)(F)F)c2Cl)CC(c2ccccc2)c2ccccc2)c1 -12%
CN(C)c1ccc(CNC(=O)C2CCN(C(=O)c3ccc(-n4ccc5ccccc54)s3)CC2)cc1 -11.4%
Cc1cc(C)cc(OC(C)C(=O)Nc2nc3c(s2)CCCC3)c1 (centres undefined) -23.2%
COc1ccc(NC(=O)c2ccco2)cc1NC(=O)c1ccc(OC(C)C)cc1 -17.9%
CCOC(=O)c1ccc(NC(=O)C2CCCN(c3cnccn3)C2)cc1 (centres undefined) 25.8%
CC(=O)N1c2ccccc2CC1C(=O)N1CCN(c2ccccc2F)CC1 (centres undefined) -6.01%
CCOC(=O)C1=C(CNCc2ccc(Cl)cc2)NC(=O)NC1c1ccccc1 (centres undefined) -41.2%
COc1cccc(/C=C(\C#N)c2nc3ccccc3c(=O)[nH]2)c1OC -19.8%
COc1cc(NC(=O)Cn2cc(S(=O)(=O)N3CCC(C)CC3)c3ccccc3c2=O)cc(OC)c1OC -26.9%
CCCC(C(=O)Nc1cc(C)c(Cl)cc1OC)N1Cc2ccccc2C1=O (centres undefined) -18.9%
CCOc1ccc(Nc2ncnc3onc(-c4ccc(Cl)cc4)c23)cc1 -15.4%
COc1ccc(CCNC(=O)Cn2nc(-c3ccc(Cl)cc3)ccc2=O)cc1OC -19.1%
COc1cn(CC(=O)Nc2cccc(C)c2)c(CN2CCCCC2)cc1=O -4.51%
COC(=O)c1ccc(OCC2c3cc(OC)c(OC)cc3CCN2C(=O)Cc2ccc(OC)c(OC)c2)cc1 (centres undefined) -19.4%
CC(C)c1nn2c(=O)cc(COC(=O)c3ccc4c(c3)OCO4)nc2s1 2.45%
Cc1cn2c(=O)c(S(=O)(=O)NCCc3ccc(Cl)cc3)c(C)nc2s1 -8.38%
CC(=O)N1CCc2c(sc3c2c(=O)n(-c2ccccc2)c(=O)n3CC(=O)c2ccc(F)cc2)C1 -7.52%
COc1cc(C(=O)Nc2nnc(CC(C)(C)C)s2)cc(OC)c1OC 11.2%
CCc1ccc(NC(=O)C2CCCN2S(=O)(=O)c2cccc3nsnc23)cc1 (centres undefined) -21.5%
CCc1ccc2occ(CC(=O)NCc3ccccc3)c2c1 -26.5%
CCOc1ccccc1C(=O)Nc1cc2c(cc1C)n(C)c(=O)c(=O)n2C -7.47%

Reference: PubChem BioAssay AID1508624 (National Center for Advancing Translational Sciences (NCATS), 2021)
